Our source for the T/C values is PubChem BioAssay AID344 (DTP/NCI, 2004).

Structures are written as SMILES. Inconclusive results and toxic doses are left out. Not every entry of the source has a single result; some have several. The other results are left out here. An entry can have further records. Results that share an entry differ for a reason that is not stated; dose, time, organism, isomer or construct need not be as stated for each record.

For this assay, the system named is mice, LPC-1 plasma cell tumor ip, median survival T/C. Put plainly: NCI In Vivo Anticancer Drug Screen. Data for tumor model Lieberman Plasma Cell No. 1 (LPC-1) (intraperitoneal) in unknown mice. The note with it: endpoint: median survival time, higher = longer survival. The method, then:
The antitumor activity of compounds was measured in mice bearing transplantable tumors. Survival or tumor size were measured and the results are expressed as the measurement made in the treated group (T) divided by the measurement made in the vehicle treated control group (C). The tumor model used in this assay is Lieberman Plasma Cell No. 1 (LPC-1) (intraperitoneal) in unknown mice

On to `O=P1(N(CCCl)CCCl)NCCCO1` (stereo not drawn), for which the T/C (dose: 25.0 mg/kg/injection, schedule: Q01DX009 (ip), vehicle: saline) is 119 % of control and 167 % of control.
With `CS(=O)(=O)OCCN(CCOS(C)(=O)=O)c1ccc(/C=N/Nc2ncnc3nc[nH]c23)cc1`, the T/C is 105 % of control and 156 % of control (dose: 80.0 mg/kg/injection, schedule: Q01DX028 (sc), vehicle: other); 115 % of control and 155 % of control (dose: 270.0 mg/kg/injection, schedule: Q01DX028 (sc), vehicle: other).
